Assay results from PubChem BioAssay AID463173 (ICCB-Longwood Screening Facility, Harvard Medical School, 2010).
Out of some 52,000 compounds screened, about 4,300 (8.3%) were called active. Cut-off read from the data, not from the text of the source: active = survival mostly below about 52% (no sharp cut-off); inactive = mostly above about 56%. The list shows a part of the results.

Tested on: DeltatarO mutant
Assay: S. aureus survival, RN4220 and DeltatarO strains – OD600, teichoic acid synthesis inhibitors, primary screen (AID 463173)
Conditions: S. aureus RN4220 wild type/DeltatarO growth, OD600, 18 h, hits give low values, screened at 18.75 µg/mL (by protocol)

Row | SMILES | survival
1 | CCOC(=O)c1ccc(NC(=O)CSc2cc(-c3ccccc3)nc(C)n2)cc1 | active: 40%
2 | Nc1ccccc1NC(=O)CCC(=O)O | inactive: 103%
3 | COCCn1c(Cc2ccccc2)nnc1SCC(=O)N(C)C | inactive: 81%
4 | Cc1c(C(=O)N2CCCCCC2)c(S(=O)(=O)Nc2ccc(OC(F)(F)F)cc2)c(C)n1C | inactive: 113%
5 | CCOC(=O)C1CCCN(C(=O)c2cc3c(Cl)nc4ccccc4c3s2)C1 (stereo not given) | active: 26%
6 | COc1cccc2sc(N(Cc3cccnc3)C(=O)C3CCCCC3)nc12 | inactive: 86%
7 | CC(C)c1nn2c(=O)cc(COC(=O)c3cccc(NC(=O)c4ccccc4F)c3)nc2s1 | inactive: 67%
8 | CCOc1ccc(C2c3c(-c4ccccc4O)n[nH]c3C(=O)N2Cc2cccnc2)cc1OC (stereo not given) | inactive: 90%
9 | O=C(Nc1cccc(Cl)c1)C(Cc1ccccc1)n1cccc1 (stereo not given) | active: 11%
10 | CC(C)CC(=O)Nc1nnc(S(=O)(=O)N(C)c2ccc(Cl)cc2)s1 | inactive: 107%
11 | Cc1ccc(C)c(N(C)C(=O)CCNC(=O)Cn2cnc3ccccc3c2=O)c1 | inactive: 69%
12 | Cc1c(-c2ccc(Cl)cc2)c(=O)oc2c(CN3CCN(C)CC3)c(O)ccc12 | inactive: 107%
13 | CN1CCN(S(=O)(=O)c2ccc(Br)c3ccccc23)CC1 | inactive: 99%
14 | O=C(CNC(=O)c1ccccc1Cl)OCc1cc(=O)n2nc(C3CC3)sc2n1 | inactive: 78%
15 | Fc1ccc(F)c(Nc2c3c(nc4ccc(Cl)cc24)CCC3)c1 | active: -18%
16 | CCN(CC)CCCNC(=O)c1c2c(nc3ccccc13)C(=O)N(C1CCCCC1)C2 | inactive: 95%
17 | CCN(CC)S(=O)(=O)c1ccc(Nc2ccc(-c3ccc4c(c3)OCCO4)nn2)cc1 | inactive: 91%
18 | CCOC(=O)c1ccc2c(c1)sc1nc(-c3ccc(OCC)cc3)cn12 | active: 44%
19 | COc1cccc(CNC(=O)Cn2c(=O)cc(C(F)(F)F)c3c(C)nn(C)c32)c1OC | inactive: 90%
20 | O=C(NCCS(=O)(=O)N1CCN(c2ccccc2F)CC1)c1ccccc1C(F)(F)F | inactive: 104%
21 | Cc1cccc(-c2nc(SCc3cc(=O)c4cccc(F)c4[nH]3)n[nH]2)c1 | inactive: 101%
22 | Cc1ccc(C)c(N2CCN(C(=O)CN3CCSc4ccccc43)CC2)c1 | inactive: 89%
23 | COc1cc(C(=O)Nc2ccccc2OCc2cc(=O)n3c(C)csc3n2)cc(OC)c1OC | inactive: 106%

Row | SMILES | survival
24 | CNCC(=O)NC(c1ccccc1)c1ccccc1 | inactive: 97%
25 | CCOc1ccc(CCNC(=O)CSc2nnnn2-c2ccccc2Cl)cc1OCC | inactive: 72%
26 | COCCn1c(=N)c(C(=O)NCC2CCCO2)cc2c(=O)n3ccccc3nc21 (stereo not given) | inactive: 63%
27 | O=S(=O)(Nc1ccccn1)c1cccs1 | inactive: 83%
28 | CCN1CCN(C(c2ccc(C)cc2)c2sc3nc(-c4ccco4)nn3c2O)CC1 (stereo not given) | inactive: 67%
29 | Cc1ccc(NCc2nnc(SCC(=O)c3ccc(C)cc3)n2C)cc1 | inactive: 118%
30 | O=C1Nc2ccc(S(=O)(=O)N3CCCC3)c3cccc1c23 | inactive: 101%
31 | Cc1cccc2sc(N(Cc3cccnc3)C(=O)CCS(=O)(=O)c3ccccc3)nc12 | inactive: 89%
32 | COc1ccc(NC(=O)CCc2nc3cccnc3n2-c2ccccc2)c(OC)c1 | inactive: 62%
33 | COc1ccc(N2C(=O)C(CC(=O)Nc3ccc(Cl)cc3)N(Cc3ccc4c(c3)OCO4)C2=O)cc1 (stereo not given) | inactive: 98%
34 | CS(=O)(=O)N(CC(=O)N1CCOCC1)c1cccc2ccccc12 | inactive: 76%
35 | CCOC(=O)c1c(NC(=O)c2cc(=O)c3cc(Cl)ccc3o2)sc(C)c1C | inactive: 51%
36 | CC(C)Sc1ncc(Cl)c(C(=O)Nc2nc3ccc(S(C)(=O)=O)cc3s2)n1 | inactive: 96%
37 | Cc1cc(-c2ccc(S(=O)(=O)Nc3cccc(C(F)(F)F)c3)s2)on1 | inactive: 108%
38 | CCOC(=O)c1ccc(NC(=O)C2=C(C)C(=O)OC23CCCCCC3)cc1 | inactive: 81%
39 | CN(C(=O)CSc1nc2ccc(NC(=O)COc3ccc(F)cc3)cc2s1)c1ccccc1 | inactive: 73%
40 | COC(=O)C1=NNC2(c3ccc(C)cc3)C(=O)N(c3ccc(C)cc3)C(=O)C12 (stereo not given) | inactive: 107%
41 | Cc1c(Cl)cccc1NC(=O)c1cc(-c2cccs2)on1 | inactive: 66%
42 | CCOC(=O)c1c(C)[nH]c(C)c1S(=O)(=O)N(C)CC(=O)Nc1cccc(Cl)c1C | inactive: 73%
43 | Cc1ccc(-n2ncc(C(=O)NCc3ccc4c(c3)OCO4)c2C2CCN(C(=O)OC(C)(C)C)CC2)cc1C | inactive: 84%
44 | COc1ccc(CN2CCCN(CC(=O)Nc3ccc(Br)cc3F)S2(=O)=O)cc1 | inactive: 88%
45 | Cc1ccc(NCc2cccn2-c2nnc(N3CCC(C(=O)NCc4ccccc4C)CC3)s2)cc1 | inactive: 92%
46 | Cc1c(C(=O)N2CCC(C)CC2)c(S(=O)(=O)Nc2cccc(C#N)c2)c(C)n1C | inactive: 101%

Row | SMILES | survival
47 | CCOc1ccc(NC(=O)CC2Nc3cccc4cccc(c34)NC2=O)cc1 (stereo not given) | active: 37%
48 | Cc1cc(N2CCOCC2)nc(=S)[nH]1 | inactive: 78%
49 | CC1=C(c2ccc(C)c(C)c2)S(=O)(=O)N=C1N1CCN(c2cccc(C)c2)C(C)C1 (stereo not given) | inactive: 72%
50 | COc1ccc(C(=O)N2CCCCC2CCN2CCOCC2)cc1 (stereo not given) | inactive: 86%
51 | CC(C)Cc1nn2c(=O)cc(COC(=O)c3cccc(NC(=O)c4cccs4)c3)nc2s1 | inactive: 83%
52 | Cc1ccccc1Cn1c(=O)n(CC2CCC(C(=O)N3CCC(C)CC3)CC2)c(=O)c2sccc21 (stereo not given) | inactive: 73%
53 | COc1ccccc1CNC(=O)CCCn1c(=O)c2ccccc2n(CC(=O)Nc2ccc(C)cc2Cl)c1=O | inactive: 84%
54 | Cc1cc(C)c(NC(=O)C2CCN(C(=O)N3CC(C)Oc4ccc(Cl)cc43)CC2)c(C)c1 (stereo not given) | inactive: 56%
55 | Cc1cc(C)cc(NS(=O)(=O)c2ccc(-c3cc(C)no3)s2)c1 | inactive: 89%
56 | COc1ccc(NC(=O)c2cc3c(=O)n(Cc4cccs4)ccc3nc2C)c(OC)c1 | inactive: 92%
57 | COc1ccc(NC(=O)Cn2c(=O)n(Cc3nc(C)no3)c(=O)c3cc4c(cc32)OCO4)cc1 | inactive: 99%
58 | Cc1ccc(-c2nc3cc(Cl)ccc3o2)cc1NC(=O)c1cc2ccccc2o1 | active: 43%
59 | Cc1c(C(=O)N(C)C)sc2c1c(=O)n(-c1ccccc1C(F)(F)F)c(=O)n2Cc1ccccc1C#N | inactive: 93%
60 | COc1ccc(C(=O)NCc2ccc3c(c2)CCN3C(C)=O)cc1OC | inactive: 83%
61 | Cc1oc(-c2ccc(C(=O)NCCCOC(C)C)cc2)nc1CS(=O)(=O)c1ccccc1 | active: -4%
62 | CCn1ccc2cc(S(=O)(=O)N3CCCN(C(=O)Nc4ccc(C)cc4Cl)CC3)ccc21 | inactive: 75%
63 | COc1cc2c(cc1OC)n(CC(=O)Nc1ccc(C)cc1C)c(=O)n1nc(-c3ccccc3)nc21 | inactive: 82%
64 | O=C(NN1C(=O)C2C3C=CC(C3)C2C1=O)c1ccccc1 (stereo not given) | inactive: 80%
65 | Cc1cc(Nc2ccccc2F)n2nc(Cc3ccc(Cl)cc3)nc2n1 | active: 44%
66 | COc1cccc(CNC(=O)CSc2cc(C)[nH]c(=O)n2)c1 | inactive: 94%
67 | Cc1c(Cl)cccc1NC(=O)CSc1nc(=O)n(Cc2ccncc2)c2c1CCC2 | inactive: 107%
68 | CCOc1ccc2c(c1)c(=O)c(S(=O)(=O)c1ccc(CC)cc1)cn2CC | inactive: 70%
69 | COc1ccc(-c2nnc(SCC(=O)N3CCCCC3)o2)cc1 | inactive: 81%

Row | SMILES | survival
70 | CCOc1ccccc1-c1noc(CSc2nnc(-c3ccncc3)n2-c2ccc(F)cc2)n1 | inactive: 57%
71 | Cc1c(C(=O)Nc2ccccc2Br)oc2ccccc12 | inactive: 70%
72 | CC1CCN(C(=O)CN2c3ccc(Br)cc3-c3ccccc3S2(=O)=O)CC1 | inactive: 101%
73 | O=C(COc1ccccc1)Nc1c(C(=O)N2CCN(c3ccc(F)cc3)CC2)oc2ccccc12 | inactive: 102%
74 | CC(C)c1ccc(Nc2cc(C(=O)NCCCN(C)Cc3ccccc3)c3ccccc3n2)cc1 | inactive: 134%
75 | Cc1cccc(NC(=O)CSc2ncc3c(n2)-c2cc(Cl)ccc2N(C)S3(=O)=O)c1C | inactive: 107%
76 | CC(=O)N1CCN(C(=O)C(=O)Nc2c3c(nn2-c2ccc(Cl)cc2)CSC3)CC1 | active: -1%
77 | COC(=O)c1ccc(C2c3c(-c4ccc(Br)cc4)n[nH]c3C(=O)N2c2ccc(Cl)cc2)cc1 (stereo not given) | inactive: 93%
78 | COc1cccc(-n2c(-c3ccco3)nc3c(cnn3-c3ccccc3C)c2=O)c1 | inactive: 85%
79 | O=C(CCCOc1ccccc1)Nc1nccs1 | inactive: 85%
80 | CN1CCN(Cc2nnnn2CC2CCCO2)CC1 (stereo not given) | inactive: 95%
81 | COc1ccc(-c2nc(Cn3c(SCc4cccc(F)c4)nc4cccnc43)c(C)o2)cc1 | inactive: 76%
82 | Cn1cc(S(=O)(=O)N2CCCCCC2)cc1C(=O)Nc1ccccc1F | inactive: 88%
83 | COc1ccc2oc(-c3ccc(C)c(NC(=O)c4sc5ccccc5c4Cl)c3)nc2c1 | active: 48%
84 | Cc1cccc(C)c1NC(=O)N1CCC(C(N)=O)(N2CCCCC2)CC1 | inactive: 106%
85 | O=C(Nc1ccc(F)cc1F)c1cc2ccc3cccnc3c2[nH]1 | inactive: 57%
86 | Cc1ccccc1Nc1cc(C(=O)NC2CCC(C)CC2)c2ccccc2n1 (stereo not given) | inactive: 78%
87 | CCOC(=O)c1ccc(NC(=O)c2c(NCc3cccc(OC)c3)sc3c2CCC3)cc1 | inactive: 69%
88 | Cc1cccc(CSc2nc3ccncc3n2Cc2ccc(C(=O)O)cc2)c1 | inactive: 72%
89 | O=C(Nc1ccc(-c2cn3cccnc3n2)cc1)c1ccccc1F | inactive: 80%
90 | Cc1ccc(OCc2ccc(-c3nc(C#N)c(N4CCN(c5cccc(Cl)c5)CC4)o3)o2)cc1 | inactive: 55%
